Measured values as given in a collection of fitness landscapes (doi:10.1126/science.1257360).
The other results are listed elsewhere or left out.

B1: PhoQ; a variant is named by its letters at X, in order, P23837 (parent)
chain: MKKLLRLFFPLSLRVRFLLATAAVVLVLSLAYGMVALIGYSVSFDKTTFRLLRGESNLFYTLAKWENNKLHVELPENIDKQSPTMTLIYDENGQLLWAQRDVPWLMKMIQPDWLKSNGFHEIEADVNDTSLLLSGDHSIQQQLQEVREDDDDAEMTHSVAVNVYPATSRMPKLTIVVVDTIPVELKSSYMVWSWFIYVLSANLLLVIPLLWVAAWWSLRPIEALAKEVRELEEHNRELLNPATTRELTSLVRNLNRLLKSERERYDKYRTTLTDLTHSLKTPLXXLQXXLRSLRSEKMSVSDAEPVMLEQISRISQQIGYYLHRASMRGGTLLSRELHPVAPLLDNLTSALNKVYQRKGVNISLDISPEISFVGEQNDFVEVMGNVLDNACKYCLEFVEISARQTDEHLYIVVEDDGPGIPLSKREVIFDRGQRVDTLRPGQGVGLAVAREITEQYEGKIVAGESMLGGARMEVIFGRQHSAPKDE

Variants of: B1
Assay: enrichment ratio after two sorts for PhoP signalling (ratio (wild type AVST 3.29)); higher = more functional
Details: with PhoP (E. coli)

Row | Variant | enrichment ratio
1 | VRDV | ≤ 0.25
2 | NGDR | ≤ 0.25
3 | TADR | ≤ 0.25
4 | PIAF | ≤ 0.25
5 | NETN | ≤ 0.25
6 | STRC | ≤ 0.25
7 | VHWG | ≤ 0.25
8 | AICL | 17.5
9 | EMFR | ≤ 0.25
10 | ICMP | ≤ 0.25
11 | RMKW | ≤ 0.25
12 | LLVT | ≤ 0.25
13 | QAQI | ≤ 0.25
14 | NFVG | ≤ 0.25
15 | TYGQ | ≤ 0.25
16 | PWRT | ≤ 0.25
17 | MDCD | ≤ 0.25
18 | KLFC | ≤ 0.25
19 | WGPQ | ≤ 0.25
20 | NHDT | ≤ 0.25
21 | RHDM | ≤ 0.25
22 | PHQR | ≤ 0.25
23 | PCLF | ≤ 0.25
24 | LHLR | ≤ 0.25

Row | Variant | enrichment ratio
25 | YCRQ | ≤ 0.25
26 | SLNS | ≤ 0.25
27 | MSCH | 4.92
28 | DHPS | ≤ 0.25
29 | KFEF | ≤ 0.25
30 | PTFQ | ≤ 0.25
31 | APAR | ≤ 0.25
32 | DCFS | ≤ 0.25
33 | YNTN | ≤ 0.25
34 | PNVK | 2.33
35 | KFIQ | ≤ 0.25
36 | ADDR | ≤ 0.25
37 | NHHG | ≤ 0.25
38 | EIVI | ≤ 0.25
39 | FDQG | ≤ 0.25
40 | TSMY | 12.3
41 | KCLD | ≤ 0.25
42 | YRLS | ≤ 0.25
43 | IMRI | ≤ 0.25
44 | LKRR | ≤ 0.25
45 | SEMF | 20.6
46 | KDNY | ≤ 0.25
47 | VPMC | ≤ 0.25
48 | EAQQ | ≤ 0.25

Row | Variant | enrichment ratio
49 | RMTH | ≤ 0.25
50 | EQDV | ≤ 0.25
51 | AAPC | 0.676
52 | LIKT | ≤ 0.25
53 | DFSN | ≤ 0.25
54 | YLHM | ≤ 0.25
55 | ITMH | ≤ 0.25
56 | EQCI | ≤ 0.25
57 | VIQH | ≤ 0.25
58 | YDYK | ≤ 0.25
59 | TVLS | 2.02
60 | KQHK | ≤ 0.25
61 | FWIS | ≤ 0.25
62 | LTPP | ≤ 0.25
63 | GEMR | ≤ 0.25
64 | QPNP | ≤ 0.25
65 | IGSS | ≤ 0.25
66 | AMKS | ≤ 0.25
67 | MGMS | ≤ 0.25
68 | TTKE | ≤ 0.25
69 | CQNV | ≤ 0.25
70 | LSTK | ≤ 0.25
71 | DSCL | ≤ 0.25
72 | QFHW | ≤ 0.25

Row | Variant | enrichment ratio
73 | HKLF | ≤ 0.25
74 | NRKL | ≤ 0.25
75 | TKSN | 1.74
76 | FWLI | ≤ 0.25
77 | VGGS | ≤ 0.25
78 | KVWD | ≤ 0.25
79 | RGCS | 0.323
80 | RIHN | ≤ 0.25
81 | YSYM | ≤ 0.25
82 | IHLK | ≤ 0.25
83 | HGSY | ≤ 0.25
84 | IHSY | ≤ 0.25
85 | LMEA | ≤ 0.25
86 | DFIS | ≤ 0.25
87 | NPIK | ≤ 0.25
88 | PAFY | ≤ 0.25
89 | RGRY | ≤ 0.25
90 | PTRD | ≤ 0.25
91 | SQHF | ≤ 0.25
92 | CSLL | ≤ 0.25
93 | FDPD | ≤ 0.25
94 | KDCK | ≤ 0.25
95 | SQND | ≤ 0.25
96 | QCGM | 9.92

Row | Variant | enrichment ratio
97 | NRKF | ≤ 0.25
98 | PSIQ | ≤ 0.25
99 | YAGF | ≤ 0.25
100 | DHDP | ≤ 0.25
101 | AKSH | 7.58
102 | KNFW | ≤ 0.25
103 | ASHF | ≤ 0.25
104 | PKAM | ≤ 0.25
105 | VYWQ | ≤ 0.25
106 | SNDA | ≤ 0.25
107 | WMPY | ≤ 0.25
108 | QGEI | ≤ 0.25
109 | NMRG | ≤ 0.25
110 | HKCW | ≤ 0.25
111 | MSPQ | ≤ 0.25
112 | DQFP | ≤ 0.25
113 | YKMA | ≤ 0.25
114 | GFDN | ≤ 0.25
115 | SAPR | ≤ 0.25
116 | NVTP | ≤ 0.25
117 | PSFF | ≤ 0.25
118 | FNGM | ≤ 0.25
119 | VVDK | ≤ 0.25
120 | NFPF | ≤ 0.25

Row | Variant | enrichment ratio
121 | NDIV | ≤ 0.25
122 | QSCV | 0.43
123 | FIPG | ≤ 0.25
124 | HHPF | ≤ 0.25
125 | VPHE | ≤ 0.25
126 | WFHK | ≤ 0.25
127 | HPFR | ≤ 0.25
128 | GNPF | ≤ 0.25
129 | ERVC | ≤ 0.25
130 | ASWG | ≤ 0.25
131 | IWVS | ≤ 0.25
132 | RWGG | ≤ 0.25
133 | IPQV | ≤ 0.25
134 | FAVG | ≤ 0.25
135 | FWNV | ≤ 0.25
136 | GFPA | ≤ 0.25
137 | QTVW | ≤ 0.25
138 | TLPD | ≤ 0.25
139 | PRQE | ≤ 0.25
140 | KNIA | ≤ 0.25
141 | EEMT | ≤ 0.25
142 | MELK | ≤ 0.25
143 | DHDY | ≤ 0.25
144 | WNLS | ≤ 0.25

Row | Variant | enrichment ratio
145 | FFPH | ≤ 0.25
146 | NMLM | ≤ 0.25
147 | NNPA | ≤ 0.25
148 | MFLI | ≤ 0.25
149 | EIPT | ≤ 0.25
150 | TMRD | ≤ 0.25
151 | PACR | ≤ 0.25
152 | RTAM | ≤ 0.25
153 | FHGQ | ≤ 0.25
154 | GIAT | ≤ 0.25
155 | DRCR | ≤ 0.25
156 | FHIF | ≤ 0.25
157 | VDST | ≤ 0.25
158 | VLIK | ≤ 0.25
159 | GNHA | ≤ 0.25
160 | GSNH | ≤ 0.25
161 | PVNN | ≤ 0.25
162 | DRAF | ≤ 0.25
163 | FGII | 0.857
164 | MYVE | ≤ 0.25
165 | TSCT | 18.9
166 | VDVM | ≤ 0.25
167 | RGTL | ≤ 0.25
168 | DWQV | ≤ 0.25

Row | Variant | enrichment ratio
169 | SARH | ≤ 0.25
170 | FPRM | ≤ 0.25
171 | FNQY | ≤ 0.25
172 | AAAR | ≤ 0.25
173 | LEHL | ≤ 0.25
174 | MHEA | ≤ 0.25
175 | VAYG | ≤ 0.25
176 | SITH | 7.37
177 | LYGG | ≤ 0.25
178 | CSTP | ≤ 0.25
179 | HRTP | ≤ 0.25
180 | LEPD | ≤ 0.25
181 | SYEG | ≤ 0.25
182 | VNVQ | ≤ 0.25
183 | MHTR | ≤ 0.25
184 | SFRS | ≤ 0.25
185 | PIMV | ≤ 0.25
186 | NENQ | ≤ 0.25
187 | HHME | ≤ 0.25
188 | IMYE | ≤ 0.25
189 | VKWQ | ≤ 0.25
190 | SNTI | 10.1
191 | THSD | ≤ 0.25
192 | LEES | ≤ 0.25

Row | Variant | enrichment ratio
193 | VDDL | ≤ 0.25
194 | MRLA | ≤ 0.25
195 | PFTL | ≤ 0.25
196 | HIKF | ≤ 0.25
197 | SAMM | 12.7
198 | FYKN | ≤ 0.25
199 | RGGA | ≤ 0.25
200 | WAGK | ≤ 0.25
201 | RPFV | ≤ 0.25
202 | RKVH | ≤ 0.25
203 | GKDQ | ≤ 0.25
204 | VKDD | ≤ 0.25
205 | NCHS | ≤ 0.25
206 | PEQT | ≤ 0.25
207 | VATK | ≤ 0.25
208 | WFSH | ≤ 0.25
209 | DLAM | ≤ 0.25
210 | MITQ | ≤ 0.25
211 | QYVH | ≤ 0.25
212 | ITVR | 0.267
213 | PPFI | ≤ 0.25
214 | WWTK | ≤ 0.25
215 | WQNN | ≤ 0.25
216 | MNYP | ≤ 0.25

Row | Variant | enrichment ratio
217 | WCPN | ≤ 0.25
218 | VWRW | ≤ 0.25
219 | TYQK | ≤ 0.25
220 | TMAI | 8.73
221 | PVRT | ≤ 0.25
222 | EINF | ≤ 0.25
223 | LSVY | ≤ 0.25
224 | PHDV | ≤ 0.25
225 | RVCW | ≤ 0.25
226 | IFLS | ≤ 0.25
227 | IVRF | ≤ 0.25
228 | NMDY | ≤ 0.25
229 | RRCM | ≤ 0.25
230 | DDFV | ≤ 0.25
231 | MRHT | 0.477
232 | DLPW | ≤ 0.25
233 | APRN | ≤ 0.25
234 | DLHV | ≤ 0.25
235 | FNFA | ≤ 0.25
236 | LEFM | 5.19
237 | YVWV | ≤ 0.25
238 | FIEW | ≤ 0.25
239 | WAPE | ≤ 0.25
240 | ICWH | ≤ 0.25

Row | Variant | enrichment ratio
241 | KLKC | ≤ 0.25
242 | TERY | ≤ 0.25
243 | VVER | ≤ 0.25
244 | FDQI | ≤ 0.25
245 | ELPH | ≤ 0.25
246 | DGGF | ≤ 0.25
247 | LAES | ≤ 0.25
248 | FSEW | ≤ 0.25
249 | TIVA | ≤ 0.25
250 | RDHA | ≤ 0.25
251 | PCED | ≤ 0.25
252 | QCLR | ≤ 0.25
253 | SDLR | 0.328
254 | SPVY | ≤ 0.25
255 | RFDP | ≤ 0.25
256 | PLTM | ≤ 0.25
257 | MDMA | ≤ 0.25
258 | IEMD | ≤ 0.25
259 | YKNL | ≤ 0.25
260 | NSDP | ≤ 0.25
261 | GEQW | ≤ 0.25
262 | WRTA | ≤ 0.25
263 | MRRI | ≤ 0.25
264 | LKMW | ≤ 0.25

Row | Variant | enrichment ratio
265 | GFQG | ≤ 0.25
266 | EHMW | ≤ 0.25
267 | DDHH | ≤ 0.25
268 | ACLC | 12.2
269 | KIGR | ≤ 0.25
270 | ATVK | ≤ 0.25
271 | HAPC | ≤ 0.25
272 | FDCC | ≤ 0.25
273 | RPLT | ≤ 0.25
274 | DQAM | ≤ 0.25
275 | VFKK | ≤ 0.25
276 | PHEL | ≤ 0.25
277 | NIMY | ≤ 0.25
278 | SNII | 2.62
279 | DLLL | ≤ 0.25
280 | GEIA | 1.92
281 | LATF | ≤ 0.25
282 | EAKV | ≤ 0.25
283 | IEKP | ≤ 0.25
284 | KGIC | ≤ 0.25
285 | TRWA | ≤ 0.25
286 | SLWC | ≤ 0.25
287 | KPFD | ≤ 0.25
288 | QDNP | ≤ 0.25

Row | Variant | enrichment ratio
289 | RTCE | ≤ 0.25
290 | PYHH | ≤ 0.25
291 | DSDC | ≤ 0.25
292 | IKGW | ≤ 0.25
293 | LISF | ≤ 0.25
294 | TFIA | ≤ 0.25
295 | HDGI | ≤ 0.25
296 | AKHV | ≤ 0.25
297 | YTME | ≤ 0.25
298 | IHET | ≤ 0.25
299 | DYDQ | ≤ 0.25
300 | MVIA | ≤ 0.25
301 | PFGP | ≤ 0.25
302 | LLYF | ≤ 0.25
303 | KAID | ≤ 0.25
304 | IENQ | ≤ 0.25
305 | DEWN | ≤ 0.25
306 | FYWH | ≤ 0.25
